Screen size: about 390,000 compounds; about 2,200 (0.56%) were called active. Inconclusive means that the source gave no clear call. Such entries were picked first, then a sample of the others. Calls follow the shape of the dose curve; as a rule, active = well fitted inhibition curve with a large enough effect; inconclusive = small, poorly fitted or top-dose-only effect; inactive = no such curve, though single readings can be large or run the other way. Where the call is inconclusive, the potency comes from a doubtful curve fit.
Target: Chromobox protein homolog 1 (Homo sapiens) (UniProt P83916)
Assay: HTS for Inhibitors of HP1-beta Chromodomain Interactions with Methylated Histone Tails; also: nearly all actives have a fitted effect of over 70% in size
Details: AlphaScreen HP1-beta / biotin-H3K9me3 peptide binding; series mostly up to 114 µM
In short: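 Compound inhibition of the preformed complex between 50 nM HP1-beta and 50 nM biotinylated H3K9me3 peptide was read by AlphaScreen. Buffer was PBS pH 7.4 with 0.01% Tween-20. Incubations ran 30 min at room temperature, with 10 ug/mL donor/acceptor beads.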
Potency is read from the fitted curve at half-maximal effect; tags tell the direction and shape of the fitted curve.

Sequence of UniProt P83916 (P83916 whole entry, looked up): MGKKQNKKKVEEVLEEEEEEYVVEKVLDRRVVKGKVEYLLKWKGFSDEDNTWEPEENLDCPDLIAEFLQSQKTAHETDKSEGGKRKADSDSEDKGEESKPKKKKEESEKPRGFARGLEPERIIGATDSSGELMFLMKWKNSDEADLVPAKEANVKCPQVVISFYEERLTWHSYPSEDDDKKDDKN

Row | SMILES | Potency
1 | CC(C)CN(CC(C)C)c1ccc(/C=N/n2cnnc2)cc1[N+](=O)[O-] | inconclusive: 44.7 µM [inhibitor, partial curve]
2 | Cc1ccc2c(c1)c1c(n2CC(O)CN2CCCCCC2)CCCC1 (stereo not given) | inconclusive: 50.1 µM [inhibitor, partial curve]
3 | COc1ccc(C(=O)Nc2cc(C(=O)c3ccccc3)c(C)oc2=O)cc1 | inconclusive: 0.891 µM [inhibitor, full curve, poor fit]
4 | CC1C(=O)N(S(=O)(=O)c2ccc([N+](=O)[O-])cc2)[C@H]1c1ccc2ccccc2c1 (stereo not given in full) | inactive
5 | CN1C(=O)C(N=Nc2ccc([N+](=O)[O-])cc2)SC1=S (stereo not given) | inconclusive: 12.6 µM [inhibitor, partial curve]
6 | COc1ccc2c(c1)NC(C)(C)C=C2C | active: 44.7 µM
7 | Cc1ccc(CNC(=O)c2ccc3nc(SCc4ccc(F)cc4)[nH]c3c2)cc1 | inconclusive: 15.8 µM [inhibitor, full curve, poor fit]
8 | CCOc1ccc(CNC(=O)c2ccc3c(c2)nc2n3CCOC2)cc1OC | inactive
9 | O=C(NNC(=S)NCC1CCCO1)c1cccc(S(=O)(=O)N2CCOCC2)c1 (stereo not given) | inactive
10 | Nc1ccc(Cl)cc1C(=O)OCC(=O)NC1CCS(=O)(=O)C1 (stereo not given) | inactive
11 | COc1ccc(-c2nc(C#N)c(N3CCCCCC3)o2)cc1OC | inconclusive: 31.6 µM [inhibitor, partial curve]
12 | Cc1ccc(C(=O)N/C(=C/c2ccco2)C(=O)Nc2cccc(C(=O)O)c2)cc1 | inactive
13 | O=C(CSc1nnc(Nc2ccccc2F)s1)c1cc2ccccc2o1 | inconclusive: 39.8 µM [inhibitor, single point]
14 | N#Cc1ccccc1OCC(=O)Nc1nnc(C2CC2)s1 | inconclusive: 25.1 µM [inhibitor, single point]
15 | COCCNCCOc1ccc(C)cc1[N+](=O)[O-] | inconclusive: 20 µM [inhibitor, full curve, poor fit]
16 | Oc1ccccc1-c1nc(NCc2cccnc2)c2ccccc2n1 | inactive
17 | C=C1c2cccc(O)c2C(=O)C2C(=O)[C@]3(O)C(=O)C(C(N)=O)C(=O)[C@@H](N(C)C)[C@@H]3[C@@H](O)[C@H]12 (stereo not given in full) | inconclusive: 11.2 µM [inhibitor, full curve]
18 | CC(C)(C)CC(=O)NCC(c1ccc2c(c1)OCO2)N1CCOCC1 (stereo not given) | inactive
19 | Clc1cc(Br)ccc1OCCOCCN1CCCC1 | inconclusive: 14.1 µM [inhibitor, full curve]
20 | COc1ccc2c(C)cc3n[nH]c(=S)n3c2c1 | inconclusive: 17.8 µM [inhibitor, full curve]

Reference: PubChem BioAssay AID540317 (National Center for Advancing Translational Sciences (NCATS), 2011)
